Results reported in US8304419B2, “Chemical compounds” (priority 2007, dated 2012).
Structures can show the parent of a compound that is named as a salt. Where two headings read alike, the source gives them in different places.

Key:
Assay in all cases: microbe, parasite or virus in culture
HIV-1 K103N RT mutant = conditions: Human immunodeficiency virus 1, HeLa
HIV-1 V106A RT mutant = conditions: Human immunodeficiency virus 1, HeLa
HIV-1 Y181C RT mutant = conditions: Human immunodeficiency virus 1, HeLa
HIV-1 Y188L RT mutant = conditions: Human immunodeficiency virus 1, HeLa, read-out: IC50 against Y188L
[1] = read-out: IC50 against K103N, HeLa cell assay
[2] = read-out: IC50 against V106A, HeLa cell assay
[3] = read-out: IC50 against Y181C, HeLa cell assay

Structure (SMILES) | IC50 (HIV-1 K103N RT mutant; [1]) [nM] | IC50 (HIV-1 V106A RT mutant; [2]) [nM] | IC50 (HIV-1 Y181C RT mutant; [3]) [nM] | IC50 (HIV-1 Y188L RT mutant) [nM] | IC50 (HIV-1 K103N RT mutant; read-out: K103N activity level, HeLa-CD4-LTR-β-gal cells, K103N virus) [nM] | IC50 (HIV-1 V106A RT mutant; read-out: V106A activity level, HeLa-CD4-LTR-β-gal cells, V106A virus) [nM] | IC50 (HIV-1 Y181C RT mutant; read-out: Y181C activity level, HeLa-CD4-LTR-β-gal cells, Y181C virus) [nM]
CCc1cc(Cl)cc(Oc2c(Cl)ccc(CNC(=O)c3[nH]cnc3Cl)c2F)c1 [Example 290, 4-chloro-N-({4-chloro-3-[(3-chloro-5-ethylphenyl)oxy]-2-fluorophenyl}methyl)-1H-imidazole-5-carboxamide] | < 10 | < 10 | < 10 | < 10 |  |  | 
CN(C)Cc1cc(C#N)cc(Oc2c(Cl)ccc(CNC(=O)c3[nH]cnc3Cl)c2F)c1 [Example 311, 4-chloro-N-{[4-chloro-3-({3-cyano-5-[(dimethylamino)methyl]phenyl}oxy)-2-fluorophenyl]methyl}-1H-imidazole-5-carboxamide trifluoroacetate] | < 10 | < 10 | < 10 | < 10 |  |  | 
CC(C)c1cc(C#N)cc(Oc2c(Cl)ccc(CNC(=O)c3[nH]cnc3Cl)c2F)c1 [Example 159, 4-chloro-N-[(4-chloro-3-{[3-cyano-5-(1-methylethyl)phenyl]oxy}-2-fluorophenyl)methyl]-1H-imidazole-5-carboxamide] | < 10 | < 10 | < 10 | < 10 |  |  | 
N#Cc1cc(Cl)cc(Oc2c(Cl)ccc(CNC(=O)c3[nH]ccc3Cl)c2F)c1 [Example 128, 3-chloro-N-({4-chloro-3-[(3-chloro-5-cyanophenyl)oxy]-2-fluorophenyl}methyl)-1H-pyrrole-2-carboxamide] | < 10 | < 10 | < 10 | < 10 | < 10 | < 10 | < 10
N#Cc1cc(Cl)cc(Oc2c(Cl)ccc(Cn3cnc4nc[nH]c4c3=O)c2F)c1 [Example 368, 3-chloro-5-({6-chloro-2-fluoro-3-[(6-oxo-6,7-dihydro-1H-purin-1-yl)methyl]phenyl}oxy)benzonitrile trifluoroacetate] | < 10 | < 10 | < 10 | 10 to 1000 |  |  | 
N#Cc1cc(Cl)cc(Oc2c(Cl)ccc(CNC(=O)c3[nH]c(N)nc3Cl)c2F)c1 [Example 230, 2-amino-4-chloro-N-({4-chloro-3-[(3-chloro-5-cyanophenyl)oxy]-2-fluorophenyl}methyl)-1H-imidazole-5-carboxamide trifluoroacetate] | < 10 | < 10 | < 10 | < 10 |  |  | 
C#Cc1cc(C#N)cc(Oc2c(Cl)ccc(CNC(=O)c3[nH]cnc3Cl)c2F)c1 [Example 310, 4-chloro-N-({4-chloro-3-[(3-cyano-5-ethynylphenyl)oxy]-2-fluorophenyl}methyl)-1H-imidazole-5-carboxamide] | < 10 | < 10 | < 10 | < 10 |  |  | 
Cc1nc(Cl)c(C(=O)NCc2ccc(Cl)c(Oc3cc(C#N)cc(C4CC4)c3)c2F)[nH]1 [Example 308, 4-chloro-N-({4-chloro-3-[(3-cyano-5-cyclopropylphenyl)oxy]-2-fluorophenyl}methyl)-2-methyl-1H-imidazole-5-carboxamide trifluoroacetate] | < 10 | < 10 | < 10 | < 10 |  |  | 
CCNc1nc(Cl)c(C(=O)NCc2ccc(Cl)c(Oc3cc(Cl)cc(C#N)c3)c2F)[nH]1 [Example 362, 4-chloro-N-({4-chloro-3-[(3-chloro-5-cyanophenyl)oxy]-2-fluorophenyl}methyl)-2-(ethylamino)-1H-imidazole-5-carboxamide trifluoroacetate] | < 10 | < 10 | < 10 | < 10 |  |  | 
C=Cc1ccc(CNC(=O)c2[nH]c(C)nc2Cl)c(F)c1Oc1cc(Cl)cc(C#N)c1 [Example 269, 4-Chloro-N-({3-[(3-chloro-5-cyanophenyl)oxy]-4-ethenyl-2-fluorophenyl}methyl)-2-methyl-1H-imidazole-5-carboxamide] | < 10 | < 10 | < 10 | < 10 |  |  | 
N#Cc1cc(Cl)cc(Oc2c(Cl)ccc(Cn3cnc4cc[nH]c4c3=O)c2F)c1 [Example 369, 3-chloro-5-({6-chloro-2-fluoro-3-[(4-oxo-4,5-dihydro-3H-pyrrolo[3,2-d]pyrimidin-3-yl)methyl]phenyl}oxy)benzonitrile] | < 10 | < 10 | < 10 | 10 to 1000 |  |  | 
N#Cc1cc(Oc2c(Cl)ccc(CNC(=O)c3[nH]cnc3Cl)c2F)cc(C(F)F)c1 [Example 309, 4-chloro-N-[(4-chloro-3-{[3-cyano-5-(difluoromethyl)phenyl]oxy}-2-fluorophenyl)methyl]-1H-imidazole-5-carboxamide] | < 10 | < 10 | < 10 | < 10 |  |  | 
Cc1cc(C#N)cc(Oc2c(Cl)ccc(CNC(=O)c3[nH]c(C)nc3Cl)c2F)n1 [Example 271, 4-Chloro-N-({4-chloro-3-[(4-cyano-6-methyl-2-pyridinyl)oxy]-2-fluorophenyl}methyl)-2-methyl-1H-imidazole-5-carboxamide] | < 10 | < 10 | < 10 | < 10 |  |  | 
Cc1nc(Cl)c(C(=O)NCc2ccc(Br)c(Oc3cc(Cl)cc(C#N)c3)c2F)[nH]1 [Example 231, N-({4-bromo-3-[(3-chloro-5-cyanophenyl)oxy]-2-fluorophenyl}methyl)-4-chloro-2-methyl-1H-imidazole-5-carboxamide trifluoroacetate] | < 10 | < 10 | < 10 | < 10 |  |  | 
Cc1cc(C#N)cc(Oc2c(Cl)ccc(CNC(=O)c3[nH]c(C)nc3Br)c2F)c1 [Example 146, 4-bromo-N-({4-chloro-3-[(3-cyano-5-methylphenyl)oxy]-2-fluorophenyl}methyl)-2-methyl-1H-imidazole-5-carboxamide] | < 10 | < 10 | < 10 | < 10 |  |  | 
COc1cc(C#N)cc(Oc2c(Cl)ccc(CNC(=O)c3[nH]c(N)nc3Cl)c2F)c1 [Example 366, 2-amino-4-chloro-N-[(4-chloro-3-{[3-cyano-5-(methyloxy)phenyl]oxy}-2-fluorophenyl)methyl]-1H-imidazole-5-carboxamide trifluoroacetate] | < 10 | < 10 | < 10 | < 10 |  |  | 
CC#Cc1cc(C#N)cc(Oc2c(Cl)ccc(CNC(=O)c3[nH]cnc3Cl)c2F)c1 [Example 317, 4-chloro-N-[(4-chloro-3-{[3-cyano-5-(1-propyn-1-yl)phenyl]oxy}-2-fluorophenyl)methyl]-1H-imidazole-5-carboxamide] | < 10 | < 10 | < 10 | < 10 |  |  | 
CCc1cc(C#N)cc(Oc2c(Cl)ccc(CNC(=O)c3[nH]c(C)nc3Br)c2F)c1 [Example 149, 4-bromo-N-({4-chloro-3-[(3-cyano-5-ethylphenyl)oxy]-2-fluorophenyl}methyl)-2-methyl-1H-imidazole-5-carboxamide] | < 10 | < 10 | < 10 | < 10 |  |  | 
N#Cc1cc(Cl)cc(Oc2c(Br)ccc(CNC(=O)c3nc(N)[nH]c3Cl)c2F)c1 [Example 239, 2-amino-N-({4-bromo-3-[(3-chloro-5-cyanophenyl)oxy]-2-fluorophenyl}methyl)-4-chloro-1H-imidazole-5-carboxamide] | < 10 | < 10 | < 10 | < 10 |  |  | 
